For eleven compounds, log2 surviving fraction results are on record in the supplement of paper PMC8813932.

Structures can show the parent of a compound that is named as a salt. The list shows a part of the results. Single values are uncertain, as repeats are few or missing.

The assay relates to Ov4Carbo. Put plainly: log2 surviving fraction relative to plate median (drug vs vehicle, or drug+dl922-947 vs dl922-947 alone); ovarian cancer lines: OVCAR4 is platinum-sensitive while Ov4Cis resists cisplatin and Ov4Carbo carboplatin; higher = more cell survival. To be noted: dl922-947 oncolytic adenovirus co-treatment: none; compound concentration: 10 uM; 192 h.
`CC1CNc2c(cccc2S(=O)(=O)N[C@@H](CCCNC(=N)N)C(=O)N2CC[C@@H](C)C[C@@H]2C(=O)O)C1` (stereo partly specified) [Argatroban]: the log2 surviving fraction was 0.198.
As for `O=c1c(-c2ccc(O)cc2)coc2cc(O)ccc12` [Daidzein], the log2 surviving fraction was -0.64.
As to `COc1cc2nc(N3CCN(C(=O)C4CCCO4)CC3)nc(N)c2cc1OC` (stereo unspecified) [Terazosin HCl (Hytrin)], the log2 surviving fraction amounted to 0.683.
In the case of `O=C(O)CCc1nc(-c2ccccc2)c(-c2ccccc2)o1` [Oxaprozin], the log2 surviving fraction was found to be 0.738.
As for `CCC[C@H](NC(=O)[C@@H]1[C@H]2CCC[C@H]2CN1C(=O)[C@@H](NC(=O)[C@@H](NC(=O)c1cnccn1)C1CCCCC1)C(C)(C)C)C(=O)C(=O)NC1CC1` [Telaprevir (VX-950)], the figure is -1.94; as for `COC(=O)C1=C(C)NC(C)=C(C(=O)OC)C1c1ccccc1[N+](=O)[O-]` [Nifedipine (Adalat)], 0.572.
Take `COc1ccc2c(c1)C(=O)N(CCc1ccc(S(=O)(=O)NC(=O)NC3CCCCC3)cc1)C(=O)C2(C)C` [Gliquidone]: the log2 surviving fraction is -0.736.
On to `OC(Cn1cncn1)(Cn1cncn1)c1ccc(F)cc1F` [Fluconazole], for which the log2 surviving fraction was -0.4.
In the case of `C[C@@H](O)[C@H]1C(=O)N2C(C(=O)O)=C(S[C@@H]3CN[C@H](CNS(N)(=O)=O)C3)[C@H](C)[C@H]12` [Doripenem Hydrate], the log2 surviving fraction is -0.199.
The same measure for `CN1[C@@H]2C[C@@H](OC(=O)[C@H](CO)c3ccccc3)C[C@H]1[C@@H]1O[C@@H]12` [Scopolamine hydrobromide]: -0.349; for `CCCCCCOC(=O)NC(=N)c1ccc(NCc2nc3cc(C(=O)N(CCC(=O)OCC)c4ccccn4)ccc3n2C)cc1` [BIBR-1048 (Dabigatran)]: 0.638.
